Here are results for one molecule from PubChem BioAssay (NCI).

The source holds several records for some structures; these can differ, active in one and inactive in another.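 Interpretation: 100, growth as untreated; towards 0, rising growth inhibition; 0, no net growth; 0 to -100, cell death. Compounds scoring below 10 were considered active.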 Certain results were filed several times, with different values. The other results are left out here. There may be further records. The screen tested this drug many times, at the concentration stated with the values; one value stands for one run. Signs of the kind (2×) give the number of equal values in this list.

For the assay, the system named is CAKI-1 renal. The experiment in a line: NCI-60 one-dose screen, 48 h (100 = growth as untreated, 0 = no growth, -100 = all killed).

In the case of `COc1cccc2c1C(=O)c1c(O)c3c(c(O)c1C2=O)C[C@@](O)(C(=O)CO)C[C@@H]3OC1CC(N)C(O)C(C)O1` (stereo not given in full), the growth result was “inactive: 58.4, 64, 57.9, 53.1, 73.1, 69.1, 83, 85.7, 76.8, 63.8, 56.6, 63.6, 56.2, 52.1, 63.4, 63.9, 66.8, 53.6, 65.1, 62.1 (2×), 65.7, 74.4, 69.7 (2×), 71.5, 78, 68.1, 61.3, 71.3 (2×), 65.4 (2×), 37.4, 36.4, 74.7 (2×), 64.2 (2×), 113, 77.6, 70.7 (2×), 78.7, 82.1, 84.1, 84.9 (2×), 88.1, 80.5, 78.8, 81.3 (2×), 90.3, 84.7, 74.9, 73.7, 48.4, 70.2, 64.5, 74.1, 58.2, 55.9, 75.2, 51, 93.4, 79.2, 66.7, 59.4, 79.5, 42, 76, 75.8, 74, 68.6%” (0.25 µM, runs of 2009); “inactive: 64.1, 67.3, 53.5, 63, 49.2, 46.5, 59.9 (2×), 46.2, 55.8, 62, 49.3, 65.1, 69.5, 82.4 (3×), 70.6, 58.2, 62.5, 90.7, 53.1, 74.3 (2×), 39.6, 73.2, 73.7, 44, 57.3, 49.4, 64.4, 61.1, 64.9, 53.2, 29, 47.8, 22.7, 62.3, 82, 83.6, 75.1, 67.7, 85.1, 80.2, 86, 82.6, 70.2, 66.3, 60.6, 51.8, 51, 54.9, 52.1, 51.7, 52, 51.3%” (0.25 µM, runs of 2010); “inactive: 60.4, 76.3, 80.2, 71.3, 75, 77.6 (2×), 87.6, 81.4 (2×), 72.3, 70.4 (2×), 80.9, 86.2, 82.4, 76.8, 79.2, 78.4, 80.1, 68.6, 72.2, 72.7 (2×), 78.5, 78.2, 74.9 (2×), 80.5, 70.3, 75.2, 88.8, 86.7, 78.8, 83, 81.8, 72.1, 77.4, 84.8, 74.7, 72.9, 82, 63.6, 57.5, 65.1 (2×), 61.2, 62.4, 74.3, 68, 66.7, 58.2, 75.5, 68.7, 61.3, 71.4, 69.5, 70.6, 69.2 (2×), 73.8, 79.7, 77.5, 73.2, 56.9%” (0.25 µM, runs of 2011); “inactive: 70.2, 64.9 (2×), 66.8 (2×), 59.4, 77.5, 82.1, 71, 72.2, 69.7, 70 (2×), 64.4, 63.1, 61.3, 63.8 (2×), 63.3 (3×), 60.3 (2×), 67.2, 64.5, 64.1, 65.6, 61.9, 71.6, 75.9 (2×), 77.2, 81.5, 83.4, 81.6 (2×), 82.2, 85.4, 89.8, 87, 89.5, 82 (2×), 81.8, 87.4, 80.6, 62.5 (2×), 61.7, 76.3, 73.5, 72.4, 55.4, 63.7, 50.6, 54, 64.6, 59.2, 55.9 (2×), 50.8, 51.1, 63.2 (2×), 67.4, 43.3, 62, 51.8 (2×), 42.7, 61, 56.8, 41.6, 83.1, 62.9, 83.6%” (0.25 µM, runs of 2012); “inactive: 54.6, 53.4, 58.4, 49.4, 62.8 (2×), 66.4, 67.8, 68.1 (2×), 63.4 (2×), 70.1, 69.9, 50.7, 65.6, 60.3 (2×), 69.4, 62.7, 72.1, 55.7, 68.7, 66.2, 62.3, 64.2, 63.8, 60.7, 55.9, 62.9 (2×), 74.1, 79.7, 72.5 (2×), 76.3, 69, 67.5, 66.9, 69.8, 82.2, 87.6, 70.7, 70.2, 69.5, 65.1, 70.5, 74.3, 69.2, 78.7, 73.5, 65.2, 56.7, 63.2, 66.3, 70.8, 71.1, 72.8, 58.3, 64.6, 58.9, 58.1, 67.7, 58, 56.5, 63.9, 69.6, 73.2, 75, 81.2, 79, 75.4, 78.6, 83.3%” (0.25 µM, runs of 2013); “inactive: 80.8, 81.9, 79.8 (2×), 79.5, 76.4, 75.7 (2×), 71, 79.6, 84.1 (2×), 57.2, 56.1, 59.4, 61.8, 64.4 (2×), 71.6 (2×), 70.9, 68.6 (2×), 82.6, 71.8, 82.1 (2×), 91.3, 83.5, 83.4, 88, 87.7 (2×), 85.4 (2×), 92, 85.5, 86.4 (2×), 84.6, 89.4, 86.8, 84.8, 52.3, 51.4, 58.9, 56.6, 63.3, 61.2, 88.2, 88.5, 64.3, 64, 66.5, 66.3, 77.5, 80.2, 79.9, 74.7, 77.7, 90.1 (2×), 67.6, 70, 82.3, 74, 71.4, 72.4, 62.1, 65, 64.6 (2×), 69.9, 74.2, 76.3, 74.3, 80, 78.6, 76.2, 77, 80.4, 68.9, 73.9, 72.9, 81.5, 76.1%” (0.25 µM, runs of 2014). The growth entry is, setting by setting: (0.25 µM, runs of 2015) “inactive: 84.3 (2×), 73.7, 72, 68.7 (2×), 62.6, 59.9, 69.3, 65.9, 69.8, 63, 79, 77, 78.9 (2×), 87.5, 81.6, 79.1 (4×), 75.8, 79.3, 83.7, 84.7, 89.6, 92.4, 94.4, 93.5 (2×), 80.7 (2×), 90.6, 90.9, 58.3, 59.8, 63.7, 70.2, 77.8, 78.7, 75.4, 89.7, 86.6, 67.3, 79.2, 66.5, 81, 85.7, 82.7 (2×), 72.1, 91.8, 81.4, 87.1, 87, 72.4, 71.8 (2×), 78.3, 58, 58.4, 62.8, 64.4, 63.9, 66.8, 74.6, 71.2, 70.9, 70.7, 68, 77.6, 73 (2×), 79.4, 78.6, 80.3, 74, 75.1 (2×), 72.6, 75, 80.2, 74.1, 80.1, 81.1, 78.2%”; (0.25 µM, runs of 2016) “inactive: 71.1, 68.5, 68.1 (2×), 69.9, 75.6, 79.8, 79.1, 76.3, 83.9, 85.9, 87.5, 76.7, 82.3, 77.2, 79.5, 72.8, 77.1, 71.6, 78.7, 67.7, 67.1, 69.2, 75.9, 73.8%”; (0.25 µM, runs of 2017) “inactive: 26.1 (2×), 26.9 (2×), 22.3, 24.4, 26.5, 26, 26.4, 29.8, 29.4, 29.9, 31.2, 29.3, 25.4, 28.7, 27.4, 29.2 (2×), 24.9, 25.9, 36.1, 36.7, 32.9, 33.2, 38.3, 39.2, 40, 41.4, 41, 44.4, 46.5, 57.4, 57.3, 62.1, 63.3, 69.9, 68.2, 78.4, 80.6, 31.6, 34.1, 33.5, 24.5, 25.3, 33.3, 30.9, 38.9, 39.6, 40.2, 37.9, 30.7, 37, 37.7, 60.6, 65.7, 66.6, 70.3%”; (0.25 µM, runs of 2018) “inactive: 66.5, 64, 61.1, 62.8, 62.6, 70.4, 70.3, 27.8, 29.2, 30.4, 48.7, 44.3, 47.3, 58.4, 56.1, 60.7, 55.2, 72.6, 57.3, 59.6, 68.5, 84.7, 29.9 (2×), 25.9, 33.3, 33.9, 26.1, 26.3, 25.1, 25.8 (2×), 47.5, 47.6, 26.5, 35.7, 69.6, 68.9, 27.5 (2×), 28.8, 23.1, 28.7, 32.6, 24.1, 30.5, 25.3, 24.2, 28, 18.9, 11.3, 21.9%”; (0.25 µM, runs of 2019) “inactive: 16.4, 16.7, 13.2, 26.8, 37.8, 36.4, 34.7, 20.2, 21 (2×), 23.9 (3×), 18.4, 26.6, 29, 65.1, 78.8, 69.5, 66.6, 19.4, 14.4, 15.8, 28.8, 12.4, 25.3, 25.5, 11.1, 11.3, 27.1, 25.2, 19.5, 11.6, 15.1, 14.2, 22, 28.9, 31.7, 32.2, 20.5, 19.9, 36.7, 30.5, 26.5%”; (0.25 µM, runs of 2020) “inactive: 15.4, 19.8, 19.6, 21.1, 25.3, 16.9, 29.5, 20, 24.9, 26, 23.1, 36.2, 25.2, 55.6, 36.1, 38.8, 22.7, 27.8, 24.6, 35, 39.4%”. Also, the growth entry is “inactive: 33.9, 38.5, 19.6, 29.3, 39.3, 28.7, 31.6, 27.3, 26.7, 27.9, 29.1, 31.9 (2×), 27.8, 31.2, 21.4, 19.4, 27.1, 20.8 (2×), 22.3, 22.8, 20.6, 20.4, 22.7 (2×), 26.5, 25.3, 26.8, 35.5, 19.1, 17.4, 19.2, 19, 21.9, 24.5, 25.4, 24.2 (2×), 19.8 (2×), 25.9, 11.8, 18.8, 15.3, 14.1, 21.2, 26.3%” (0.25 µM, runs of 2021); “active: 6.42%, 6.45% and inactive: 26.5, 25.9, 13.7, 46.2, 52.8, 54.2, 60.3, 59.8 (2×), 72.6, 66.1, 18.3, 14.7, 41.2, 44.9, 24.2, 48, 40.8, 60, 37.4, 56.8, 63.8, 65.6%” (0.25 µM, runs of 2022); “active: -14, -4.81, -3.49, -12, -25.6, -26.7, -9.38, -52.9, -28 (2×), -10.4, 1.21, -8.57, -6.04, -17%” (25 µM, runs of 1991).
